Holding throughout (experiment): two-hybrid; bacterial two-hybrid (T18 and T25 domains of B. pertussis adenylate cyclase; pUT18C and pKT25) in cya-deficient E. coli BTH101, 30°C; X-Gal plates and β-galactosidase activity
The target in test [1] is T1, T25-RelA^1-663 (Escherichia coli) (UniProt P0AG20).
T1 sequence: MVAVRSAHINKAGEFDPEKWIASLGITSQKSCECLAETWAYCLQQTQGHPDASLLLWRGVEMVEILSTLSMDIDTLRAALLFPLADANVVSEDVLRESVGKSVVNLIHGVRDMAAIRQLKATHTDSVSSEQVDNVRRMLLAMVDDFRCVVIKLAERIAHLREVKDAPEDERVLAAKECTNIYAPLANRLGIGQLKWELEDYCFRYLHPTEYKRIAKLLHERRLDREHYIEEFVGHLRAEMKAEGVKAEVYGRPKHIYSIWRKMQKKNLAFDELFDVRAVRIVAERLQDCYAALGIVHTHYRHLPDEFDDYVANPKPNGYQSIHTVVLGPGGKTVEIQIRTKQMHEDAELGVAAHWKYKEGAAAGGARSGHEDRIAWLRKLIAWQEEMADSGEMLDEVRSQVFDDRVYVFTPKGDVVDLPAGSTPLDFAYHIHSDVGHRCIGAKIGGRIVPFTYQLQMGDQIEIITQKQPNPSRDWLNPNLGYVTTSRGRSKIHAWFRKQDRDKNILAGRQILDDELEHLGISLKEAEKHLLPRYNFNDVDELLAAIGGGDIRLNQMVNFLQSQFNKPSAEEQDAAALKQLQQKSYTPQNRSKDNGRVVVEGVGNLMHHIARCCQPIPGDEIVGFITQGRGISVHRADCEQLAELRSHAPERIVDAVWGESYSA

Sequences of proteins named here, by UniProt entry; tags and fusion partners are left off.
UniProt P0AG24: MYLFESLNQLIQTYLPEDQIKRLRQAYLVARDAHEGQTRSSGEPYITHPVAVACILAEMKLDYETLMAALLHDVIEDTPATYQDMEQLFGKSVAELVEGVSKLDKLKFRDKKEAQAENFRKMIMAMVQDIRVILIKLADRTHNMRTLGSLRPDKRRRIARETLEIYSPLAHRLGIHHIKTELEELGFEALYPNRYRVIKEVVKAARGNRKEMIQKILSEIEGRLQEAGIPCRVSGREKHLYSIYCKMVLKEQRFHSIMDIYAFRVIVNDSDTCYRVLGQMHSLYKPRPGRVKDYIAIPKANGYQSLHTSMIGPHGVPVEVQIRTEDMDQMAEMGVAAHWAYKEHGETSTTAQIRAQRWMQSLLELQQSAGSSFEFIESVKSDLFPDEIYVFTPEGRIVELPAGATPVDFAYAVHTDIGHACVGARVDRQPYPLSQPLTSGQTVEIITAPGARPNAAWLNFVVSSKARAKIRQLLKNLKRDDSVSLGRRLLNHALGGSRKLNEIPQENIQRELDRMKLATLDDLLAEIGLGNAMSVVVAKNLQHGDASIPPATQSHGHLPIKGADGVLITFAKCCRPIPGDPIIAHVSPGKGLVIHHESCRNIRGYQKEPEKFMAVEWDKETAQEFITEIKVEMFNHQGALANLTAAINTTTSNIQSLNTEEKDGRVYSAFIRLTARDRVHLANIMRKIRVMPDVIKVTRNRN

Test [2] has as its target T25-SpoT (Escherichia coli) (UniProt P0AG24).
The target in test [3] is T2, T25-RelA^1-181 (Escherichia coli) (UniProt P0AG20).
T2 sequence: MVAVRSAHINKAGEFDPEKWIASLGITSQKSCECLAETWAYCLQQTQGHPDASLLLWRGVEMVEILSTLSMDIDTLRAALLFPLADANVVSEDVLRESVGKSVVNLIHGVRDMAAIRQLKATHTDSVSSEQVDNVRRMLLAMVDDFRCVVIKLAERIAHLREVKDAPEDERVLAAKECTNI

For test [4], the target named is T3, T25-RelA^1-470 (Escherichia coli) (UniProt P0AG20).
T3 sequence: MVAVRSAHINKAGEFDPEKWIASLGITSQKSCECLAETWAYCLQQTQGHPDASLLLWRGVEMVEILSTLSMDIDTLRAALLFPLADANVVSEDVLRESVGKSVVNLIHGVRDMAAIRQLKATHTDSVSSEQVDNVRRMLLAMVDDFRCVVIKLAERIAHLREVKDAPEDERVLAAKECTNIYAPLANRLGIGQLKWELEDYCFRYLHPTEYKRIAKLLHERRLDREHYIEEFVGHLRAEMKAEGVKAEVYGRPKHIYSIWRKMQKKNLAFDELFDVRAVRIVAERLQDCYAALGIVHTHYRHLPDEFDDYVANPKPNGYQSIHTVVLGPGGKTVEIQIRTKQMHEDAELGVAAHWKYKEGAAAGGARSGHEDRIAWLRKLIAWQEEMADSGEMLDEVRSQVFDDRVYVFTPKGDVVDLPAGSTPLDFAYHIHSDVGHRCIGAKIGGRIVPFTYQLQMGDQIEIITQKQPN

Test [5] concerns the target T4, T25-NirB (Escherichia coli) (UniProt P08201).
T4 sequence: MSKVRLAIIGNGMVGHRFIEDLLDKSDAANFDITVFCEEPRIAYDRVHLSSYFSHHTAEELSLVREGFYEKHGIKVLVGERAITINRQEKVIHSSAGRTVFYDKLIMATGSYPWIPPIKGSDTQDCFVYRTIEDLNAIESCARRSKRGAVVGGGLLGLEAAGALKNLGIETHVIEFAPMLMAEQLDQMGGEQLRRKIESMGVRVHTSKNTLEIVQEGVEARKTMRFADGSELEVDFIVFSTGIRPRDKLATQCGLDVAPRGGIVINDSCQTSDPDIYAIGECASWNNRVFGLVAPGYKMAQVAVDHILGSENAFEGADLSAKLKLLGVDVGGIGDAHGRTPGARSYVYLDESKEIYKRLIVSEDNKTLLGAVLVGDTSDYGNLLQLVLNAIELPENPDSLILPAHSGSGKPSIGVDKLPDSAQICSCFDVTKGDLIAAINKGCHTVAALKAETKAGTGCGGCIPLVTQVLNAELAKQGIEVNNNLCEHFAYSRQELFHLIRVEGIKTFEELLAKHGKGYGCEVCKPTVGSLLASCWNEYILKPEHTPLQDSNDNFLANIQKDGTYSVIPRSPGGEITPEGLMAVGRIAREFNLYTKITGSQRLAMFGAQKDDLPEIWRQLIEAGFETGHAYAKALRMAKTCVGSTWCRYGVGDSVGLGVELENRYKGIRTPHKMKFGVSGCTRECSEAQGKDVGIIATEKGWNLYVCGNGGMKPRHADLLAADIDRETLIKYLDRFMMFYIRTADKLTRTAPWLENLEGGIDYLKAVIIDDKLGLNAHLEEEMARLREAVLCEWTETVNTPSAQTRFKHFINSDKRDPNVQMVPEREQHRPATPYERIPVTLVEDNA

Test [6] deals with T5, T25-RelA^181-744 (Escherichia coli) (UniProt P0AG20).
T5 sequence: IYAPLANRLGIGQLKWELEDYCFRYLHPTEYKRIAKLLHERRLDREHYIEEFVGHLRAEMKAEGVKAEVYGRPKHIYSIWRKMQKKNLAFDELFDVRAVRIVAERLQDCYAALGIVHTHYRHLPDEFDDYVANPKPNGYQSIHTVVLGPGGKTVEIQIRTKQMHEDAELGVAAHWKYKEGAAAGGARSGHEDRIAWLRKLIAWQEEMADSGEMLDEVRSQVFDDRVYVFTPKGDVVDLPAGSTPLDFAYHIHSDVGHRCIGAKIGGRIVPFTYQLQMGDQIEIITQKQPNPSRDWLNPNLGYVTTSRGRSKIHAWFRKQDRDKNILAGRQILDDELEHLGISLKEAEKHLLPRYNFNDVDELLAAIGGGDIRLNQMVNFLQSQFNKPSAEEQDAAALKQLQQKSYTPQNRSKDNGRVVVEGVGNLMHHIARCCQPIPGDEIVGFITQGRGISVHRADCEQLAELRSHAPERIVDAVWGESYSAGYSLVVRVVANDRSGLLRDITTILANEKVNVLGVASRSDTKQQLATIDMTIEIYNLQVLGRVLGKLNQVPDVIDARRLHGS

The target in test [7] is T6, T25-RelA^1-580 (Escherichia coli) (UniProt P0AG20).
T6 sequence: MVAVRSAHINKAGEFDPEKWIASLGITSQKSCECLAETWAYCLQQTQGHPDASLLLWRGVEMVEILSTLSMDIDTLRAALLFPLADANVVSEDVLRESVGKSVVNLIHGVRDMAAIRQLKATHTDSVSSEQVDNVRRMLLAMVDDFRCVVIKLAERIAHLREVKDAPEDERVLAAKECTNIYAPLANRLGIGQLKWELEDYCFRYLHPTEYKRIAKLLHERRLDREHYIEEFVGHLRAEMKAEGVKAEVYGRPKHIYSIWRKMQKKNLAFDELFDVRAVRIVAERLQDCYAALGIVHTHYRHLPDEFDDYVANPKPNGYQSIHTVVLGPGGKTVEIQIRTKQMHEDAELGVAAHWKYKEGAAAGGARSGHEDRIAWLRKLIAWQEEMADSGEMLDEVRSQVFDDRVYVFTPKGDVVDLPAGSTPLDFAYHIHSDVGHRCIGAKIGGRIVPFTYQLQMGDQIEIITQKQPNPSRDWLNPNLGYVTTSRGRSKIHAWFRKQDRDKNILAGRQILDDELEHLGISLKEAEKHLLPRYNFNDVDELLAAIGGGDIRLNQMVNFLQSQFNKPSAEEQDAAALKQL

No constants are given. Whether binding was seen depends on the method and setting. Some binding calls cover weakened binding; strength is not graded here.

B1: T18-NirD (protein, UniProt P0A9I8 1-108)
chain: MSQWKDICKIDDILPETGVCALLGDEQVAIFRPYHSDQVFAISNIDPFFESSVLSRGLIAEHQGELWVASPLKKQRFRLSDGLCMEDEQFSVKHYEARVKDGVVQLRG
Take B1: the binding entry in test [1] is “binds”; in test [2], “no binding”; in test [3] it was “no binding”; in test [4], “binds”; in test [5] it was “binds”; in test [6], “no binding”. In test [7], the binding entry was “binds”.

B2: T18-NirD^E50K (protein, UniProt P0A9I8 1-108)
chain: MSQWKDICKIDDILPETGVCALLGDEQVAIFRPYHSDQVFAISNIDPFFKSSVLSRGLIAEHQGELWVASPLKKQRFRLSDGLCMEDEQFSVKHYEARVKDGVVQLRG
Turning to B2, in test [5], the binding result is listed as “binds”.
